The values below come from article PMC6230555.

Chains of the proteins cited; added tags and fusions are not shown.
UniProt Q3LS21: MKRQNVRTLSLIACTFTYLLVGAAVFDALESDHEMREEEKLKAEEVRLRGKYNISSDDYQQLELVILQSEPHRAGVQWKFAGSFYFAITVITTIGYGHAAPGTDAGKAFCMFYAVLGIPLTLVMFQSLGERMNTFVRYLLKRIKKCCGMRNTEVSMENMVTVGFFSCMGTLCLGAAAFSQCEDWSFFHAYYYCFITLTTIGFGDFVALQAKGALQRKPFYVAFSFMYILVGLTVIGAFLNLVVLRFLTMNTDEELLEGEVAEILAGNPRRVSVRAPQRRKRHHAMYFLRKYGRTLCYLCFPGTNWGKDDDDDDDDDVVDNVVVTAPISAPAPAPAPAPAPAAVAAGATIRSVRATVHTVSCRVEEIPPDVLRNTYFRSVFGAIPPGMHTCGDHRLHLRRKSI

These are yes or no findings as the source states them, for the method shown. Binding seen in cells or lysates may run through a third protein. Some entries that bind do so weakly or less than the wild type. For some assays here: Sequences can lack the tags named with a protein.

For assay [1], the target named is VN-TASK-3 (mouse TASK-3 fused to the N-terminal half of split Venus) (mouse) (UniProt Q3LS21). Put plainly: split reporter; BiFC with split Venus (VN173/VC155) fusions co-transfected into COS-7 cells with DsRed-Mem; fixed with 4% paraformaldehyde the following day; Venus fluorescence by confocal microscopy.
The target of assay [2] is endogenous TASK-3 in mouse dentate gyrus granule cells (mouse (endogenous in hippocampal DGGCs)) (UniProt Q3LS21). Put plainly: proximity ligation; Duolink PLA on frozen hippocampal sections of mice with antibodies to TASK-3 (rabbit) and TWIK-1 (goat); DGGCs infected with Ad-Sc shRNA or knock-down shRNA.
Assay [3] has as its target Flag-TASK-3 (Flag-tagged mouse TASK-3) (mouse) (UniProt Q3LS21). Put plainly: co-IP; HEK293T cells co-transfected with HA-TWIK-1 and Flag-TASK-3; RIPA lysate; immunoprecipitation with anti-FLAG antibody and Protein G agarose at 4 °C; blot with anti-HA.

For the molecule “VN-TASK-3 (mouse TASK-3 fused to the N-terminal half of split Venus) (from UniProt Q3LS21 1-402)”, the binding result in assay [1] is on record as “binds”.

B1: GIRK1-VC (GIRK1 K+ channel fused to the C-terminal half of split Venus) (protein, UniProt P63250 1-501)
chain: MSALRRKFGDDYQVVTTSSSGSGLQPQGPGQGPQQQLVPKKKRQRFVDKNGRCNVQHGNLGSETSRYLSDLFTTLVDLKWRWNLFIFILTYTVAWLFMASMWWVIAYTRGDLNKAHVGNYTPCVANVYNFPSAFLFFIETEATIGYGYRYITDKCPEGIILFLFQSILGSIVDAFLIGCMFIKMSQPKKRAETLMFSEHAVISMRDGKLTLMFRVGNLRNSHMVSAQIRCKLLKSRQTPEGEFLPLDQLELDVGFSTGADQLFLVSPLTICHVIDAKSPFYDLSQRSMQTEQFEVVVILEGIVETTGMTCQARTSYTEDEVLWGHRFFPVISLEEGFFKVDYSQFHATFEVPTPPYSVKEQEEMLLMSSPLIAPAITNSKERHNSVECLDGLDDISTKLPSKLQKITGREDFPKKLLRMSSTTSEKAYSLGDLPMKLQRISSVPGNSEEKLVSKTTKMLSDPMSQSVADLPPKLQKMAGGPTRMEGNLPAKLRKMNSDRFT
For B1, the binding entry in assay [1] is on record as “no binding”.

B2: TWIK-1-VC (mouse TWIK-1 fused to the C-terminal half of split Venus) (protein, UniProt O08581 1-336)
chain: MLQSLAGSSCVRLVERHRSAWCFGFLVLGYLLYLVFGAVVFSSVELPYEDLLRQELRKLKRRFLEEHECLSEPQLEQFLGRVLEASNYGVSVLSNASGNWNWDFTSALFFASTVLSTTGYGHTVPLSDGGKAFCIIYSVIGIPFTLLFLTAVVQRVTVHVTRRPVLYFHIRWGFSKQVVAIVHAVLLGFVTVSCFFFIPAAVFSVLEDDWNFLESFYFCFISLSTIGLGDYVPGEGYNQKFRELYKIGITCYLLLGLIAMLVVLETFCELHELKKFRKMFYVKKDKDEDLVHIMEHDQLSFSSVTEQVAGLKEEQKQSEPFVASQSPPYEDGSADH
As to B2, the binding entry in assay [1] was “binds”.

B3: endogenous TWIK-1 in mouse dentate gyrus granule cells (protein, UniProt O08581 1-336)
chain: B2 chain
For B3, in assay [2], the binding result is reported as “binds”.

B4: HA-TWIK-1 (hemagglutinin-tagged mouse TWIK-1) (protein, UniProt O08581 1-336)
chain: B2 chain
Consider B4, for which the binding entry in assay [3] was “binds”.
